Results reported in US20220348651A1, “ENTPD2 ANTIBODIES, COMBINATION THERAPIES, AND METHODS OF USING THE ANTIBODIES AND COMBINATION THERAPIES” (Novartis AG, priority 2019, published 2022).

Experiments:
[1] = system: human ENTPD2 engineered B16LM3 clone B5; experiment: Human ENTPD2 engineered B16LM3 clone B5 model, combination with A2AR antagonist NIR178; format: in vivo
Experimental: Human ENTPD2-engineered B16LM3 clone B5 was established in female C57BL/6 mice by subcutaneous injection of 0.5×10^6 cells into the right flank of each mouse. Once tumors reached approximately 50 mm^3, mice were randomized according to tumor volume into treatment groups (n=8 per group). Mice received an intravenous (i.v.) treatment of either anti-ENTPD2 mAb1 at a final dose of 10/mg/kg or a non-specific human IgG1 isotype control 10 mg/kg on day 1 of study. NIR178 was administered per os (p.o.) for 4 days on and 3 days off, starting at the beginning of study at either 50 mg/kg or 200 mg/kg. All doses were adjusted to individual mouse body weights. The study was carried out for thirteen days post treatment initiation and tumor volumes were assessed every other day to assess efficacy.

[2] = biological target: T1, recombinant human ENTPD2 (residues 29-462) (Homo sapiens, UniProt Q9Y5L3); experiment: Biochemical human ENTPD2 functional assay (Transcreener ADP2 TR-FRET); settings: FIG. 15
T1 construct: residues 29-462 of human or cyno ENTPD2 were cloned into expression vector; GP67 signal peptide (N); made in house; host or cells: High Five (Trichoplusia ni) insect cells, baculovirus
T1 sequence (Q9Y5L3 29-462): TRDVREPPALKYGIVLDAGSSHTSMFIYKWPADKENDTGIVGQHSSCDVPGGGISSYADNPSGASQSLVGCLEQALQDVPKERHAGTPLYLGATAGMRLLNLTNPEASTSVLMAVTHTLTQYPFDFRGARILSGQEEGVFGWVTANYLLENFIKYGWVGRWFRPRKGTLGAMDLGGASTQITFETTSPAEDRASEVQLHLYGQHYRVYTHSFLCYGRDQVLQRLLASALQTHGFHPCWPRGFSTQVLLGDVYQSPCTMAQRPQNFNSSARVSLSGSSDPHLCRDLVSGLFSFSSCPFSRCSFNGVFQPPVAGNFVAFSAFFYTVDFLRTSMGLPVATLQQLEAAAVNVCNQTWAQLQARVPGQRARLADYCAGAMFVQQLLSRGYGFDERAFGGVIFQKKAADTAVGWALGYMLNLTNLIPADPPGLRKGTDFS
Source text: Biochemical and cell-based functional assays were developed in-house to understand functional impact of anti-ENTPD2 Abs against purified extracellular domain of ENTPD2 (residues 29-462), as well as against the fully intact protein in the context of the native cell-based conformation. ENTPD2 hydrolyzes ATP to ADP, which can subsequently be detected using the HTRF Transcreener ADP2 TR-FRET Red Assay (BellBrook Labs, Madison, Wis.) where ENTPD2-produced ADP would compete with the ADP Tracer for binding to the anti-ADP-Tb antibody. The resulting signal is inversely proportional to the concentration of ADP in the sample. […]
HTRF signal (Emission at 620 nm and 665 nm) was assessed in both assays using the Envision plate reader in HTRF mode (Perkin Elmer, Waltham, Mass.). HTRF ratio was determined using the following formula: HTRF ratio=R=Emission at 665 nm/Emission at 620 nm×10,000. Subsequently % Residual Activity and % Inhibition were determined as follows:
Where R0% is the HTRF ratio of the negative control (0% enzyme activity), and R100% is the HTRF ratio of the positive control (100% enzyme activity). Data were analyzed in Microsoft Excel and graphed using GraphPad's Prism 7.0 software and IC50 values were obtained using non-linear regression, log (agonist) vs. response-variable slope (four parameters) analysis.

B1: mAb1: humanized anti-human ENTPD2 human IgG1 from mAb17; heavy chain SEQ ID NO: 12, light chain SEQ ID NO: 23 (antibody)
heavy: EVQLVQSGAEVKKPGESLKISCKASGYTFTDYNMDWVRQMPGKGLEWMGDINPKYDISTYNQQFKGQVTISADKSIRTAYLQWSSLKASDTAMYYCARRGFFLYYGINYYYFDVWGQGTLVTVSSASTKGPSVFPLAPSSKSTSGGTAALGCLVKDYFPEPVTVSWNSGALTSGVHTFPAVLQSSGLYSLSSVVTVPSSSLGTQTYICNVNHKPSNTKVDKRV[here human IgG1 Fc without letters]
light: DIQLTQSPSSLSASVGDRVTITCSASSSVSYIHWFQQKPGKAPKLLIYSTSNLASGVPSRFSGSGSGTFFTLTISSLQPEDFATYFCHQWSSYPWTFGQGTKVEIKRTVAAPSVFIFPPSDEQLKSGTASVVCLLNNFYPREAKVQWKVDNALQSGNSQESVTEQDSKDSTYSLSSTLTLSKADYEKHKVYACEVTHQGLSSPVTKSFNRGEC
- tumor growth ([1]; B16 syngeneic cell line expressing human ENTPD2, combined with the A2aR antagonist NIR178): delayed tumor growth
- T/AC value ([1]; mAb1 10 mg/kg i.v. day 1 with NIR178 50 mg/kg p.o., Day 13): 61.6%
- inhibition of the catalytic activity of recombinant human ENTPD2 [2]: potently inhibit
